# In PubChem BioAssay AID894 (National Center for Advancing Translational Sciences (NCATS), 2007):
# Screen size: about 150,000 compounds; about 6,500 (4.3%) were called active. The shares of active, inactive and inconclusive entries below differ from those in the screen. Calls come from the whole dose curve; as a rule, active = well fitted inhibition curve with a large enough effect (not every such curve was filed as active); inconclusive = small, poorly fitted or top-dose-only effect, or another doubt; inactive = no such curve, though single readings can be large or run the other way. Potencies of inconclusive entries are left out as doubtful fits.
# Biological target: 15-hydroxyprostaglandin dehydrogenase [NAD(+)] (Homo sapiens) (UniProt P15428)
# Experiment: qHTS Assay for Inhibitors of HPGD (15-Hydroxyprostaglandin Dehydrogenase)
# Conditions: purified HPGD, NADH fluorescence kinetic, PGE2 substrate; activity change, negative = inhibition: hits give low values
# Outline: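 20 nM HPGD preincubated 15 min at room temperature with compound in 50 mM Tris-HCl pH 8, 0.01% Tween 20. Started with 1 mM NAD+ and 30 uM prostaglandin E2; NADH fluorescence (360/450 nm) read 5 times over 30-s intervals, last minus first.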
# % is set by controls: 0 for no effect and ±100 for the full control effect; potency is the fitted concentration of half-maximal effect; tags give direction and shape of the fitted curve.
# UniProt P15428, sequence (P15428 whole entry, looked up): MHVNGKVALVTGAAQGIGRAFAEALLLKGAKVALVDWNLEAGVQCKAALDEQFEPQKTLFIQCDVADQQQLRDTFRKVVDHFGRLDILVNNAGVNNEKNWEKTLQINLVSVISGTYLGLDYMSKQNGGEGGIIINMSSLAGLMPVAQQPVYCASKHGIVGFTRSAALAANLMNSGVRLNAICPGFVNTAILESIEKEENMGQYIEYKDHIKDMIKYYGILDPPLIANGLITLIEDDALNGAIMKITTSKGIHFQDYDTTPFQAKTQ
SMILES,Potency,"activity change, negative = inhibition"
Cc1ccc(S(=O)(=O)/N=C2/C=C(Sc3ncn[nH]3)C(=O)c3ccccc32)c(C)c1,active: 1.41 µM,–
COc1cc2cc(C(=O)O)[nH]c2c(OC)c1OC,"inconclusive [inhibitor, partial curve]",–
COCC(C)n1c(C)cc(C(=O)CSc2nc3ccccc3c(=O)[nH]2)c1C (stereo unspecified),active: 31.6 µM,–
COc1ccc(C)cc1NC(=O)C(OC(=O)c1ccc([N+](=O)[O-])o1)c1ccccc1 (stereo unspecified),–,inactive: -14.3%
Cc1nc2ccc(C(=O)OCc3ccccc3Br)cc2nc1C,–,inactive: -19.3%
COc1cc(C(=O)OCC(=O)c2cc(C)n(C)c2C)cc(NC(=O)c2ccco2)c1OC,"inconclusive [inhibitor, partial curve]",–
COCc1cc(=O)[nH]c2cc(NC(=O)C3CC3)c(C)cc12,"inconclusive [inhibitor, single point]",–
COc1ccccc1NC(=O)c1cc2n(n1)C(C(F)(F)F)CC(c1ccc3c(c1)OCO3)N2 (stereo unspecified),"inconclusive [inhibitor, partial curve]",–
N#Cc1nc(-c2ccccc2F)oc1NCCc1ccccn1,"inconclusive [inhibitor, partial curve]",–
C=CCn1cc(-c2cccc(Cl)c2)cc(C#N)c1=O,"inconclusive [inhibitor, partial curve]",–
COc1ccc(C(=O)NCCSc2ccc(C)cc2)cc1,–,inactive: -13.3%
Cc1[nH]n(-c2ccc(Br)cc2)c(=O)c1C=Nc1ccc(S(=O)(=O)Nc2nccs2)cc1,active: 14.1 µM,–
O=C(N/N=C/c1cn(-c2cccs2)nc1-c1ccccc1)c1ccc(O)cc1,"inconclusive [inhibitor, partial curve]",–
C/C(CC(=O)Nc1ccc2c(c1)OCO2)=N\NC(=O)C(c1ccccc1)c1ccccc1,–,inactive: -6.87%
COc1ccc2cc(CCN3C(=O)c4ccccc4C3=O)c(=O)[nH]c2c1,"inconclusive [inhibitor, partial curve]",–
CCc1ccc(-c2nnn(CCC(=O)OC)n2)cc1,"inconclusive [inhibitor, partial curve]",–
N#Cc1cc2c(nc1Cl)CCCC2,–,inactive: -9.89%
O=C(Nc1cc(S(=O)(=O)N2CCOCC2)ccc1O)c1ccco1,"inconclusive [inhibitor, single point]",–
Cc1ccc(C)n1-c1nc(=S)[nH][nH]1,active: 15.8 µM,–
COc1ccc(C(=O)N/N=C/C(C)c2ccccc2)cc1OC (stereo unspecified),–,inactive: -7.56%
CC1=C(C(=O)OC(C)C)C(c2cn(-c3ccccc3)nc2-c2cccs2)NC(=O)N1 (stereo unspecified),–,inactive: -7.56%
Cc1cccn2c(=O)c(/C=C(\C#N)C(=O)NC3CCS(=O)(=O)C3)c(N3CCC(C(N)=O)CC3)nc12 (stereo unspecified),"inconclusive [inhibitor, partial curve]",–
CC(C)CC(=O)c1c[nH]c(C(=O)NCCCn2ccnc2)c1,–,inactive: -9.26%

SMILES,Potency,"activity change, negative = inhibition"
O=C(CSc1cc([N+](=O)[O-])cc(S(=O)(=O)Cc2ccccc2)c1)NC1CC1,active: 22.4 µM,–
S=c1[nH]nc([C@@H]2C[C@H]2c2ccccc2)n1-c1ccccc1,active: 25.1 µM,–
C=CCNC(=O)c1ccc(Cn2c(=S)[nH]c3cc4c(cc3c2=O)OCO4)cc1,–,inactive: -23.4%
COc1ccccc1/C=N/NC(=O)c1[nH]c(C)c(C(=O)N/N=C/c2ccccc2OC)c1C,"inconclusive [inhibitor, partial curve]",–
Brc1ccc(/C=N/Nc2ccccc2)cc1,"inconclusive [inhibitor, single point]",–
Cc1ccc(C(=O)ONc2ccc(N=NC(=O)c3ccccc3O)cc2)cc1,active: 28.2 µM,–
O=C(COc1ccc(Br)cc1Cl)NC(=S)N1CCc2ccccc21,"inconclusive [inhibitor, partial curve]",–
CCCc1cc(=O)[nH]c(SCc2cc(=O)oc3cc(C)c(C(C)C)cc23)n1,active: 15.8 µM,–
Cc1cc(Nc2ccccc2Br)n2nc(C)nc2n1,"inconclusive [inhibitor, partial curve]",–
CSc1ccc(-c2c(C#N)c(N)nc3c2c(C)nn3-c2ccccc2)cc1,"inconclusive [inhibitor, partial curve]",–
Cc1[nH]c2ccc(-c3nnc(SCC(=O)N4CCCc5ccccc54)o3)cc2c1C,"inconclusive [inhibitor, single point]",–
CCOc1nc(OCC)nc(N2CCC(C)CC2)n1,–,inactive: -2.6%
O=C(c1ccc(Cn2cc(Br)cn2)cc1)N1N=C(C(F)F)CC1(O)C(F)F (stereo unspecified),–,inactive: -7.27%
Cc1cc(=O)oc2cc(OCC(=O)N3CCc4ccccc4C3)ccc12,"inconclusive [inhibitor, partial curve]",–
CC(=O)Nc1ccc(S(=O)(=O)NC2=C(N3CCN(Cc4ccccc4)CC3)C(=O)c3ccccc3C2=O)cc1,–,inactive: -4.32%
COc1ccc(-c2c(C)nc(N)nc2-c2ccc(OCc3ccc(C)cc3)cc2O)cc1OC,"inconclusive [inhibitor, partial curve]",–
O=C(COc1ccccc1Br)NCc1ccccn1,"inconclusive [inhibitor, partial curve]",–
CC(NC(=O)C1CCC1)c1ccc2c(c1)OCO2 (stereo unspecified),active: 20 µM,–
Cc1ccc(-n2nc(-c3ccco3)cc2C(=O)NCc2cccnc2)cc1,"inconclusive [inhibitor, partial curve]",–
Cc1oc2cc(O)ccc2c(=O)c1Oc1ccccc1Br,"inconclusive [inhibitor, partial curve]",–
c1ccc(Sc2cnc3ccccc3n2)cc1,"inconclusive [inhibitor, partial curve, poor fit]",–
CCn1c2ccccc2c2cc(NC(=O)C/C(C)=N/NC(=O)c3ccccc3N)ccc21,"inconclusive [inhibitor, partial curve]",–
N#CCCN1CCN(C(=S)c2ccc(-c3ccc(Cl)cc3)o2)CC1,active: 20 µM,–
